# Test results taken from the supplement of paper PMC8728848.
# Some of the results follow.
# B1: Gal 8 (Mus musculus), Q9JL15 (protein)
# chain: MGGSHHHHHHGMASMLSLNNLQNIIYNPIIPYVGTITEQLKPGSLIVIRGHVPKDSERFQVDFQLGNSLKPRADVAFHFNPRFKRSSCIVCNTLTQEKWGWEEITYDMPFRKEKSFEIVFMVLKNKFQVAVNGRHVLLYAHRISPEQIDTVGIYGKVNIHSIGFRFSSASALPHTLGDLQSMETSALGLTQINRENIQKPGKLQLSLPFEARLNASMGPGRTVVIKGEVNTNARSFNVDLVAGKTRDIALHLNPRLNVKAFVRNSFLQDAWGEEERNITCFPFSSGMYFEMIIYCDVREFKVAINGVHSLEYKHRFKDLSSIDTLSVDGDIRLLDVRSW
# What was measured:
# Test in all cases: glycan array binding signal (z-score within array); higher = stronger binding
# Conditions in all cases: glycan notation: IUPAC condensed, linker removed
# [1] = biological target: Neu5Ac(a2-6)GlcNAc(b1-4)GlcNAc(b1-4)GlcNAc
# Summary of the method: (§1)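 From the Consortium for Functional Glycomics database, 3228 arrays were curated, keeping only those whose protein sequence was available. Binding is given as a within-array Z-score averaged across arrays sharing a protein sequence and across linkers. Negative Z-scores can be read as non-binding.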
# [2] = biological target: Neu5Ac(a2-8)Neu5Ac
# Summary of the method: as §1
# [3] = biological target: Neu5Ac(a2-8)Neu5Ac(a2-3)Gal(b1-3)GalNAc(b1-4)[Neu5Ac(a2-3)]Gal(b1-4)Glc
# Summary of the method: as §1
# [4] = biological target: Neu5Ac(a2-8)Neu5Ac(a2-3)Gal(b1-3)GalNAc(b1-4)[Neu5Ac(a2-8)Neu5Ac(a2-3)]Gal(b1-4)Glc
# Summary of the method: as §1
# [5] = biological target: Neu5Ac(a2-8)Neu5Ac(a2-3)Gal(b1-4)Glc
# Summary of the method: as §1
# [6] = biological target: Neu5Ac(a2-8)Neu5Ac(a2-3)Gal(b1-4)GlcNAc
# Summary of the method: as §1
# [7] = biological target: Neu5Ac(a2-8)Neu5Ac(a2-3)[Gal(b1-3)GalNAc(b1-4)]Gal(b1-4)Glc
# Summary of the method: as §1
# [8] = biological target: Neu5Ac(a2-8)Neu5Ac(a2-3)[GalNAc(b1-4)]Gal(b1-4)Glc
# Summary of the method: as §1
# [9] = biological target: Neu5Ac(a2-8)Neu5Ac(a2-8)Neu5Ac
# Summary of the method: as §1
# [10] = biological target: Neu5Ac(a2-8)Neu5Ac(a2-8)Neu5Ac(a2-3)Gal(b1-4)Glc
# Summary of the method: as §1
# [11] = biological target: Neu5Ac(a2-8)Neu5Ac(a2-8)Neu5Ac(a2-3)[Gal(b1-3)GalNAc(b1-4)]Gal(b1-4)Glc
# Summary of the method: as §1
# [12] = biological target: Neu5Ac(a2-8)Neu5Ac(a2-8)Neu5Ac(a2-3)[GalNAc(b1-4)]Gal(b1-4)Glc
# Summary of the method: as §1
# [13] = biological target: Neu5Ac(a2-8)Neu5Ac(a2-8)Neu5Ac(a2-8)Neu5Ac(a2-3)[GalNAc(b1-4)]Gal(b1-4)Glc
# Summary of the method: as §1
# [14] = biological target: Neu5Ac(a2-8)Neu5Gc(a2-3)Gal(b1-4)GlcNAc
# Summary of the method: as §1
# [15] = biological target: Neu5Ac(b2-6)Gal(b1-4)GlcNAc
# Summary of the method: as §1
# [16] = biological target: Neu5Ac(b2-6)GalNAc
# Summary of the method: as §1
# [17] = biological target: Neu5Ac9Ac(a2-3)Gal(b1-3)GlcNAc
# Summary of the method: as §1
# [18] = biological target: Neu5Ac9Ac(a2-3)Gal(b1-4)GlcNAc
# Summary of the method: as §1
# [19] = biological target: Neu5Ac9Ac(a2-6)Gal(b1-4)GlcNAc
# Summary of the method: as §1
# [20] = biological target: Neu5Gc(a2-3)Gal(b1-3)GlcNAc
# Summary of the method: as §1
# [21] = biological target: Neu5Gc(a2-3)Gal(b1-3)[Fuc(a1-4)]GlcNAc
# Summary of the method: as §1
# [22] = biological target: Neu5Gc(a2-3)Gal(b1-4)Glc
# Summary of the method: as §1
# [23] = biological target: Neu5Gc(a2-3)Gal(b1-4)GlcNAc
# Summary of the method: as §1
# [24] = biological target: Neu5Gc(a2-3)Gal(b1-4)GlcNAc(b1-3)Gal(b1-4)GlcNAc(b1-2)Man(a1-3)[Neu5Gc(a2-3)Gal(b1-4)GlcNAc(b1-3)Gal(b1-4)GlcNAc(b1-2)Man(a1-6)]Man(b1-4)GlcNAc(b1-4)GlcNAc
# Summary of the method: as §1
# [25] = biological target: Neu5Gc(a2-3)Gal(b1-4)[Fuc(a1-3)]GlcNAc
# Summary of the method: as §1
# [26] = biological target: Neu5Gc(a2-6)Gal(b1-4)GlcNAc
# Summary of the method: as §1
# [27] = biological target: Neu5Gc(a2-6)GalNAc
# Summary of the method: as §1
# [28] = biological target: Neu5Gc(a2-8)Neu5Ac(a2-3)Gal(b1-4)GlcNAc
# Summary of the method: as §1
# [29] = biological target: Neu5Gc(a2-8)Neu5Gc(a2-3)Gal(b1-4)GlcNAc
# Summary of the method: as §1
# [30] = biological target: Neu5Gc(a2-8)Neu5Gc(a2-3)Gal(b1-4)GlcNAc(b1-3)Gal(b1-4)GlcNAc
# Summary of the method: as §1
# [31] = biological target: Neu5Gc(a2-8)Neu5Gc(a2-6)Gal(b1-4)GlcNAc
# Summary of the method: as §1
# [32] = biological target: Neu5Gc(b2-6)Gal(b1-4)GlcNAc
# Summary of the method: as §1
binder,measurement,setting,value
B1,glycan array binding signal (z-score),[1],-0.545
same,glycan array binding signal (z-score),[2],-0.531
same,glycan array binding signal (z-score),[3],0.316
same,glycan array binding signal (z-score),[4],-0.07
same,glycan array binding signal (z-score),[5],0.578
same,glycan array binding signal (z-score),[6],-0.296
same,glycan array binding signal (z-score),[7],-0.224
same,glycan array binding signal (z-score),[8],-0.538
same,glycan array binding signal (z-score),[9],-0.545
same,glycan array binding signal (z-score),[10],-0.057
same,glycan array binding signal (z-score),[11],-0.539
same,glycan array binding signal (z-score),[12],-0.541
same,glycan array binding signal (z-score),[13],-0.528
same,glycan array binding signal (z-score),[14],-0.294
same,glycan array binding signal (z-score),[15],-0.549
same,glycan array binding signal (z-score),[16],-0.539
same,glycan array binding signal (z-score),[17],0.182
same,glycan array binding signal (z-score),[18],-0.495
same,glycan array binding signal (z-score),[19],-0.546
same,glycan array binding signal (z-score),[20],0.086
same,glycan array binding signal (z-score),[21],-0.514
same,glycan array binding signal (z-score),[22],-0.313
same,glycan array binding signal (z-score),[23],-0.51
same,glycan array binding signal (z-score),[24],0.192
same,glycan array binding signal (z-score),[25],-0.534
same,glycan array binding signal (z-score),[26],-0.526
same,glycan array binding signal (z-score),[27],-0.497
same,glycan array binding signal (z-score),[28],-0.272
same,glycan array binding signal (z-score),[29],-0.264
same,glycan array binding signal (z-score),[30],-0.061
same,glycan array binding signal (z-score),[31],-0.545
same,glycan array binding signal (z-score),[32],-0.496
